Assay results taken from patent publication US20240043530A1 (JIANGSU HENGRUI PHARMACEUTICALS, published 2024).
Where two headings read alike, the source gives them in different places.

T1: human PVRIG expressed on the cell surface (human, UniProt Q6DKI7 41-326)
T1 sequence (looked up): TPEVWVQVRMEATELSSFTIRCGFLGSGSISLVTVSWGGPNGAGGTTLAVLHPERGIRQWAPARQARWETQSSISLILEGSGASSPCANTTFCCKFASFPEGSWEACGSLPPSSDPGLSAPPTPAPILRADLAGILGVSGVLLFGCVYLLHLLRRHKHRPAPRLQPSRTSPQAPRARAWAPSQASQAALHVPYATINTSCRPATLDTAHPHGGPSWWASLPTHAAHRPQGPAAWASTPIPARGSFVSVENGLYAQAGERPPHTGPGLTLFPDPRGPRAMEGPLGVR


Legend:
Assay in all cases: cell-based or functional assay
[1] = target: T1, human PVRIG expressed on the cell …
[2] = target: T1, human PVRIG expressed on the cell …; remark: listed apart in the source
[3] = target: T1, human PVRIG expressed on the cell …; remark: listed apart in the source
[4] = target: T1, human PVRIG expressed on the cell …; remark: listed apart in the source
[5] = target: T1, human PVRIG expressed on the cell …; remark: listed apart in the source
[6] = target: T1, human PVRIG expressed on the cell …; remark: listed apart in the source

Binder	Experiment on activity in PVRIG reporter cells EC50 [1]	Experiment on activity in PVRIG reporter cells EC50 [6]	Killing activity (%) of NK92 on K562, 20 nM antibody [2]	Killing activity (%) of NK92 on K562, 100 nM antibody [2]	Killing activity (%) of NK92 on K562, 4 nM antibody [5]	Killing activity (%) of NK92 on K562, 20 nM antibody [5]	Killing activity (%) of NK92 on K562, 100 nM antibody [5]	other results
anti-PVRIG antibody 30 (Fc fusion) heavy: HVQLVESGGGSVQAGGSLRLSCEASGYSYSGDCMGWFRRAPGKERDEGVATIDNAGRIKYADSVKGRFTISHGNGKYILYLQMNSLKPEDTDMYYCAAGWTFGGNCSPADWGQGTQVTVSS[human IgG4 Fc with S228P F234A L235A (EU numbers) omitted]	0.06 nM	–	36%	39%	–	–	–	IFNγ (pg/mL) in mixed lymphocyte reaction, 4 nM antibody [3]: 1680 pg/mL; IFNγ (pg/mL) in mixed lymphocyte reaction, 20 nM antibody [3]: 1910 pg/mL; IFNγ (pg/mL) in mixed lymphocyte reaction, 100 nM antibody [3]: 1580 pg/mL; Killing activity (%) of NK92 on K562, 4 nM antibody [4]: 10.4%; Killing activity (%) of NK92 on K562, 20 nM antibody [4]: 11.9%; Killing activity (%) of NK92 on K562, 100 nM antibody [4]: 13.3%
anti-PVRIG antibody 151 (Fc fusion) heavy: HVQLVESGGGSVQAGGSLRLSCVASASGFTYRPYCMAWFRQAPGKEREAVAGIDIFGGTTYADSVKGRFTASRDNAGFSLFLQMNDLKPEDTAMYYCAAGDSPDGRCPPLGQGLNYWGQGTQVTVSS[human IgG4 Fc with S228P F234A L235A (EU numbers) omitted]	0.04 nM	–	35%	33%	20.9%	22.9%	24.2%	IFNγ (pg/mL) in mixed lymphocyte reaction, 4 nM antibody [3]: 1500 pg/mL; IFNγ (pg/mL) in mixed lymphocyte reaction, 20 nM antibody [3]: 2220 pg/mL; IFNγ (pg/mL) in mixed lymphocyte reaction, 100 nM antibody [3]: 1800 pg/mL
humanized anti-PVRIG antibody 151H7 (Fc fusion) heavy: HVQLVESGGGLVQPGGSLRLSCVASASGFTYRPYCMAWFRQAPGKEREAVAGIDIFGGTTYADSVKGRFTASRDNAGFSLYLQMNSLRAEDTAVYYCAAGDSPDGRCPPLGQGLNYWGQGTMVTVSS[human IgG4 Fc with S228P F234A L235A (EU numbers) omitted]	–	0.038 nM	–	–	16.9%	21%	18.4%	–
anti-PVRIG antibody 38 (Fc fusion) heavy: QVQLVESGGGSVQAGGSLRLSCAASPSTYGPSDMAWFRQAPGKQREGVATISAAGRLTYYTDSVRGRFTISRDNAKNTMYLQMNSLKPEDTAMYYCAADFAGGSSLFADYKYWGQGTQVTVSS[human IgG4 Fc with S228P F234A L235A (EU numbers) omitted]	0.2 nM	–	29%	27%	–	–	–	IFNγ (pg/mL) in mixed lymphocyte reaction, 4 nM antibody [3]: 1390 pg/mL; IFNγ (pg/mL) in mixed lymphocyte reaction, 20 nM antibody [3]: 2020 pg/mL; IFNγ (pg/mL) in mixed lymphocyte reaction, 100 nM antibody [3]: 2130 pg/mL
humanized anti-PVRIG antibody 39H4 (Fc fusion) heavy: EVQLVESGGGLVQPGGSLRLSCAASGYTSRTDCMGWFRQAPGKGLEGVAHIDSDGIPRYVESVKGRFTISQDHAKNSLYLQMNSLRAEDTAVYYCVVGFKFGDYCAPNDWGQGTMVTVSS[human IgG4 Fc with S228P F234A L235A (EU numbers) omitted]	–	0.094 nM	–	–	–	–	–	–
anti-PVRIG antibody 39 (Fc fusion) heavy: QVQLVESGGGSVQAGGSLRLSCAASRYTSRTDCMGWFRQAPGKEREGVAHIDSDGIPRYVESVKGRFTISQDHAKNTLYLQMNSLKPEDSATYYCVVGFKFGDYCAPNDWGQGTQVTVSS[human IgG4 Fc with S228P F234A L235A (EU numbers) omitted]	0.06 nM	–	32%	30%	21.3%	22.7%	22.8%	–
humanized anti-PVRIG antibody 30H2 (Fc fusion) heavy: EVQLVESGGGLVQPGGSLRLSCAASGFTFSGDCMGWFRQAPGKGLDEGVATIDNAGRIKYADSVKGRFTISRDNAKNSLYLQMNSLRAEDTAVYYCAAGWTFGGQCSPADWGQGTQVTVSS[human IgG4 Fc with S228P F234A L235A (EU numbers) omitted]	–	0.176 nM	–	–	–	–	–	Killing activity (%) of NK92 on K562, 4 nM antibody [4]: 7.7%; Killing activity (%) of NK92 on K562, 20 nM antibody [4]: 14.5%; Killing activity (%) of NK92 on K562, 100 nM antibody [4]: 17.7%

The next lines start with results.

Experiment on activity in PVRIG reporter cells EC50 [1]	Experiment on activity in PVRIG reporter cells EC50 [6]	Binder	Killing activity (%) of NK92 on K562, 20 nM antibody [2]	Killing activity (%) of NK92 on K562, 100 nM antibody [2]	Killing activity (%) of NK92 on K562, 4 nM antibody [5]	Killing activity (%) of NK92 on K562, 20 nM antibody [5]	Killing activity (%) of NK92 on K562, 100 nM antibody [5]	other results
–	3.55 nM	humanized anti-PVRIG antibody 151H4 (Fc fusion) heavy: EVQLVESGGGLVQPGGSLRLSCVASASGFTYRPYCMAWFRQAPGKGLEAVAGIDIFGGTTYADSVKGRFTISRDNAKNSLYLQMNSLRAEDTAVYYCAAGDSPDGRCPPLGQGLNYWGQGTMVTVSS[human IgG4 Fc with S228P F234A L235A (EU numbers) omitted]	–	–	–	–	–	–
–	0.074 nM	humanized anti-PVRIG antibody 39H2 (Fc fusion) heavy: EVQLVESGGGLVQPGGSLRLSCAASGFTSRTDCMGWFRQAPGKGLEGVAHIDSDGIPRYVESVKGRFTISRDNAKNSLYLQMNSLRAEDTAVYYCVVGFKFGDYCAPNDWGQGTMVTVSS[human IgG4 Fc with S228P F234A L235A (EU numbers) omitted]	–	–	15.3%	18.7%	19.7%	–
–	0.191 nM	humanized anti-PVRIG antibody 39H1 (Fc fusion) heavy: EVQLVESGGGLVQPGGSLRLSCAASGFTFSTDCMGWFRQAPGKGLEGVAHIDSDGIPRYVESVKGRFTISRDNAKNSLYLQMNSLRAEDTAVYYCVVGFKFGDYCAPNDWGQGTMVTVSS[human IgG4 Fc with S228P F234A L235A (EU numbers) omitted]	–	–	13.7%	17.7%	21.2%	–
–	0.042 nM	humanized anti-PVRIG antibody 20H5 (Fc fusion) heavy: EVQLVESGGGLVQPGGSLRLSCAASGYTSRTDCMGWFRQAPGKEHEGVAHIDSDGIPRYVDSVKGRFTISQDHAKNSLYLQMNSLRAEDTAVYYCVVGFKFDEDYCAPNDWGQGTMVTVSS[human IgG4 Fc with S228P F234A L235A (EU numbers) omitted]	–	–	–	–	–	Killing activity (%) of NK92 on K562, 4 nM antibody [4]: 9.2%; Killing activity (%) of NK92 on K562, 20 nM antibody [4]: 9.9%; Killing activity (%) of NK92 on K562, 100 nM antibody [4]: 13.3%
–	0.078 nM	humanized anti-PVRIG antibody 30H3 (Fc fusion) heavy: EVQLVESGGGLVQPGGSLRLSCAASGYSYSGDCMGWFRQAPGKGLDEGVATIDNAGRIKYADSVKGRFTISRDNAKNSLYLQMNSLRAEDTAVYYCAAGWTFGGQCSPADWGQGTQVTVSS[human IgG4 Fc with S228P F234A L235A (EU numbers) omitted]	–	–	–	–	–	–
